From article PMC12136788 come the findings set out here.

T1: UNK ZnF1-3 (human, UniProt Q9C0B0 31-174)
T1 sequence: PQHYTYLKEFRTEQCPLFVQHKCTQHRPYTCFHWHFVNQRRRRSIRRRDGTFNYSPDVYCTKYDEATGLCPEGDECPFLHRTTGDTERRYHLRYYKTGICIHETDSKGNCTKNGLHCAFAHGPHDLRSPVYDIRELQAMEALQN

B1: chrX:129263551:129263552:-_ENSG00000156709_ENST00000287295|hu_mus|FALSE|FALSE (ssRNA)
RNA: GGGAGUUCUACAGUCCGACGAUCGGAUGGAAAAGUGCUUGUGUAUUCCACGAUUGGGAUUCAAUCUUCAUGAAUGUUGAAGAGUUUAGCUACUUCAUUGAGAUCUUCAUGUUGCUCACCGUCCUUAAUGAUCUUCCUUGCAAUCAACAGAGGAUUGAGCAUCA
B2: chr8:117878989:117878990:-_ENSG00000164754_ENST00000297338|hu_hu|hu_hu_hu_mus_True|8_108 (ssRNA)
RNA: GGGAGUUCUACAGUCCGACGAUCCCAGAGGCCCUCUUUUACUGAGGACAAAAUGUGCGUAGAACAUUUUUCUUAUUUGCUAUGAAAUAAGAAGAAACCUGGAUCUCGGCGGGGAGCCGGGAGGGGUUGGGUGGCCCGGGAGGGCAACAGAGGAUUGAGCAUCA
B3: chr11:77336104:77336105:-_ENSG00000074201_ENST00000525064|hu_mus|hu_hu_hu_mus_False|58_68 (ssRNA)
RNA: GGGAGUUCUACAGUCCGACGAUCCUCACACAUUGCUGUGAACAUCGCCUCCAAUGCUGACUUAUCACUAGGCACAAAUCUAAAUUCAGAAAUGGGUUCAACAUCAUCAUUGUCUUCCUCAUCUUCAUCAGAGAGAGGUUCUUUCAACAGAGGAUUGAGCAUCA
B4: chr4:17845017:17845018:+_ENSG00000109805_ENST00000514176|hu_mus|hu_hu_hu_mus_False|58_88 (ssRNA)
RNA: GGGAGUUCUACAGUCCGACGAUCGCUCUCUUAACUUGUAUCUUCAUGAGAAAUUGGUGCAAGGUUAAGUUUACUUUUUCUAGUGCUAGCUGUUUUGGCUCGUCUGGGUAAUCUCAUCUUCAUUUCUGAUGGUGGUUCAUGAUCCAACAGAGGAUUGAGCAUCA
B5: chr5:128440902:128440903:+_ENSG00000066583_ENST00000173527|hu_mus|hu_hu_hu_mus_True|8_108 (ssRNA)
RNA: GGGAGUUCUACAGUCCGACGAUCUUGAACCGUGCUCCCAAGUCCUUUGGGGUAUUGUUCCGUUAUGAUAACUGGAAUCCCUAAGAUCCGAGCUCCUUGCAACAGUCUCUGUCCCACACUAAUGAUGUCCCCAAAAUAUUUGAUCAACAGAGGAUUGAGCAUCA
B6: 124116895_124118113_260_CDS_ENSG00000111361_ENST00000424014|human|control|control (ssRNA)
RNA: GGGAGUUCUACAGUCCGACGAUCAUCUCUCUUCAAGAACUCCAGCAACGUCCGGAUGGCAGCCACUGCUGAGGCCAUGUCAGGAUCUUCUUUCAUCUGAGACUUAAAGUAUUCAAUUAACUCCUUGUCGUCCAUGGCGUCCUCCAACAGAGGAUUGAGCAUCA
B7: chr10:33190432:33190433:-_ENSG00000150093_ENST00000302278|hu_mus|hu_hu_hu_mus_True|18_48 (ssRNA)
RNA: GGGAGUUCUACAGUCCGACGAUCUACAUUUUCCAAACCUGCAUGUGAAUAAAACCCUGGCCACAGAGCCCCAAAACUACCCUACUGUGACUAUGGAGCUGCUGCUGUGAGCUUGGUUGUUGUGGGACCGCCUGAGUAGGAUUCCAACAGAGGAUUGAGCAUCA
B8: chr7:107985766:107985767:+_ENSMUSG00000029461_ENSMUST00000049053|mus_mus|motif|central (ssRNA)
RNA: GGGAGUUCUACAGUCCGACGAUCAUCCCUAGCAAAAUUUUUGUAGGUAAAAUGCCAGUAGUAGGACGGCUGCAUUUAAUGCGGAUUUACAGUGAGGUUCAGAGAAGUCCUUUCUGCUUCUCUGGGCCUCAGUUUCCUCAUCUGCAACAGAGGAUUGAGCAUCA
B9: chr6:143133109:143133110:+_ENSMUSG00000030275_ENSMUST00000032413|mus_hu|motif|central (ssRNA)
RNA: GGGAGUUCUACAGUCCGACGAUCUUUGGGGAUCCAGCCAUUGUGUGCAUGAAUAGCAUGGAUUUUAGCAAGCUGACGAGCGGUUAGCCUGAAAAUGGCUGGGUUGCAGACAUGCUUUGGAUCCAGUGCUUCUCCUUGUAUAAACAACAGAGGAUUGAGCAUCA
B10: chr9:108469239:108469240:-_ENSMUSG00000070283_ENSMUST00000074208|mus_mus|motif|central (ssRNA)
RNA: GGGAGUUCUACAGUCCGACGAUCCAGCCGGUCGACGUGCCGACAGAGCGGCGCAGGUCGCGUUCGGAAAAGGCAGCGAAAUCCGGGAGCAGUAGCCAUGGCUGCAACGGCGCUUAACGACCCGGUCGUAGGGACAGAGUUGUCCAACAGAGGAUUGAGCAUCA
B11: 29300206_29322573_937_3pUTR_ENSMUSG00000032740_ENSMUST00000040182|mouse|control|control (ssRNA)
RNA: GGGAGUUCUACAGUCCGACGAUCGCAAUGGCAUCAUAAUCAACUGCUGCAAAGUCUCCUGAUAAUAAAAUUUUAUCUGUUUCACCAAAAUGGACAGAUUGUGAAUUCUAAGGGAAGCAUCAUUGUUGACUUUUUUAUUUACUCCAACAGAGGAUUGAGCAUCA
B12: 78014774_78015461_2047_3pUTR_ENSMUSG00000009828_ENSMUST00000044551|mouse|control|control (ssRNA)
RNA: GGGAGUUCUACAGUCCGACGAUCGUGUGAAAGAAAGGCCUCCCCGGGUGAGGUCUCACGGCCUUGAGGGAAGAGUAGCCGGGGGGAGGGGCUGCGAGGGGCGCCAGCUGAACCCUCUGCAUGACAGAACCGAUUUCCUUUUUCCAACAGAGGAUUGAGCAUCA
B13: chr14:76904430:76904431:+_ENSMUSG00000022010_ENSMUST00000022587|mus_mus|mus_mus_mus_hu_True|88_108 (ssRNA)
RNA: GGGAGUUCUACAGUCCGACGAUCUGCUGGAAAAAAAACCCUCGUGGCGGGAGGGAGGGAACACCAGCAGCCUUGUAUAAGCUAGAUAAAAUCUUCUGGCUUUCCGCAGCCCAGGGAGAAACAGAAAACGGCAGCCCUAAUUUACAACAGAGGAUUGAGCAUCA
B14: chr12:55961067:55961068:-_ENSMUSG00000062929_ENSMUST00000078124|mus_hu|FALSE|FALSE (ssRNA)
RNA: GGGAGUUCUACAGUCCGACGAUCCUAAUUUAUCCAGAGAACAAAUCAGAUAUUGAAAAGUAUUUAUGCCAAAGUGCAAAAAAUAAUUUCUGAUCUUCAUAUUAACACAUAGGAAAUAAAUACACUAAUGUUUAUAAAAGUACCCAACAGAGGAUUGAGCAUCA
B15: chr11:21048517:21048518:+_ENSMUSG00000020134_ENSMUST00000093290|mus_mus|FALSE|FALSE (ssRNA)
RNA: GGGAGUUCUACAGUCCGACGAUCAACCCAAUCACUUAGCUUAUAAACUUACAAUGCAGUCCUGGAGGACAGCUGCUAGUCUAAAGGUCCUUGGAAAAUAAGUCUGAUAUAGCCUUGUUCACCAGCCAACUGAUGUGCACAGAACAACAGAGGAUUGAGCAUCA
B16: 176118189_176132103_288_CDS_ENSG00000143207_ENST00000367666|human|control|control (ssRNA)
RNA: GGGAGUUCUACAGUCCGACGAUCUAGUUGGGCUGCAUGUGAUUCUGCUUCCAGUUGUUUCUUCUUCUGCACUAGUAACUCCAACAUAAGAUUGACAUUGGCCAAAUCAAGGUUAUCUUGGUCAGUUCCCAACCAAUCUUGAAACAACAGAGGAUUGAGCAUCA
B17: chr3:9412954:9412955:+_ENSG00000134077_ENST00000452837|hu_mus|hu_hu_hu_mus_False|8_78 (ssRNA)
RNA: GGGAGUUCUACAGUCCGACGAUCGGUUGAUAUCUCUUCUUUGAUGGCUGGAUUUUCAUAAUAAUCUAAGAUAUGUGAAUCUGAAGUGCUGCUGGCAUGCUUUUUCUUACCAUCUUUCUCAUCUGCUUUGACUUCUUGUCCACACAACAGAGGAUUGAGCAUCA
B18: chr7:7679991:7679992:-_ENSG00000106399_ENST00000396682|hu_hu|hu_hu_hu_mus_False|8_58 (ssRNA)
RNA: GGGAGUUCUACAGUCCGACGAUCUGGGAUGAAUCUUUUCCAGCUUCCCCACGAAGCACACGGGCCGGUCGAUAUACUGAGCUAGCAUGCUGGCGUUGACGCGCGCUUUGGGGAGCUGCAUUAUGUCCACCAUGAUUCUGCCGCCAACAGAGGAUUGAGCAUCA
B19: chr11:122930651:122930652:-_ENSG00000109971_ENST00000227378|hu_mus|FALSE|FALSE (ssRNA)
RNA: GGGAGUUCUACAGUCCGACGAUCGUUGUCAAAAUCUUCUCCACCUAAGUGGGUGUCUCCAGCUGUUGAUUUGACCUCAAAAAUUCCAUCCUCAAUAGUGAGGAUUGACACAUCAAAAGUGCCACCUCCCAAGUCAAAAAUGAGCAACAGAGGAUUGAGCAUCA
B20: chr5:136386016:136386017:-_ENSMUSG00000051391_ENSMUST00000055808|mus_hu|FALSE|FALSE (ssRNA)
RNA: GGGAGUUCUACAGUCCGACGAUCUUCUCUCAAGAGGAUUAAUAAUUUUGGUGGUGGAUUUACGUUAAGAGGAAAGAAGGACCAAAAAAAAAAAAUCCCACAGCCACCUGACCUGAAGUCGCUUUCAUUCUCAUUUAGCCUAGGCAACAGAGGAUUGAGCAUCA
B21: 74707188_74715441_250_3pUTR_ENSMUSG00000024067_ENSMUST00000112571|mouse|control|control (ssRNA)
RNA: GGGAGUUCUACAGUCCGACGAUCUUUUCGACUAUUCUCUCAACGCUGUCUGUGAGCCCGUACUCAGAGUGAGGGUUUUCUGCAACCUGUGUCUGUCCCUCCAGCAUCUGCUCCGACUCCAUGGCGGACCCUGCAAACCGCAAUCAACAGAGGAUUGAGCAUCA
B22: chrX:98862621:98862622:+_ENSMUSG00000034160_ENSMUST00000044475|mus_hu|mus_mus_mus_hu_False|28_28 (ssRNA)
RNA: GGGAGUUCUACAGUCCGACGAUCCUGCAUCUCCUUUAGAGUGUUUCCCAUAUUAGAGUAGGCAUCAGCAAAGGUAGGACUGAUUCGAAUAGCCUCCUUAUAAUGCAUCAGUGCUUCCUGCAGUUUUCCCUGCUGCUGCAGUACCAACAGAGGAUUGAGCAUCA

The list shows a part of the results.

This assay concerns the target T1, UNK ZnF1-3. Description: nsRBNS (natural sequence RNA bind-n-seq); RBNS binding buffer (assumed for nsRBNS): 25 mM Tris pH 7.5, 150 mM KCl, 3 mM MgCl2, 0.01% Triton X-100, 500 ug/ml BSA, 20 U/ml SUPERase-In, 4 C; UNK is unkempt and MSI1 is Musashi-1; names of the RNAs are library labels; protein concentration not given here; high values mean tight binding.
B1 gave a binding signal of 0.568 enrichment R.
Molecule B2 displayed a binding signal of 1.26 enrichment R.
The molecule B3 showed a binding signal of 1.02 enrichment R.
The molecule B4 displayed a binding signal of 0.346 enrichment R.
B5 came in with a binding signal of 0.757 enrichment R.
As for B6, the binding signal stood at 0.88 enrichment R.
The same measure for B7: 1.02 enrichment R.
The result for B8 reads 0.463 enrichment R; that for B9, 0.564 enrichment R.
In the case of B10, the binding signal came to 0.666 enrichment R.
Take B11: the binding signal was 1.37 enrichment R.
The result for B12 reads 0.887 enrichment R; that for B13, 1.86 enrichment R.
The same measure for B14: 1.41 enrichment R; for B15: 1.45 enrichment R; for B16: 0.814 enrichment R.
The molecule B17 gave a binding signal of 0.48 enrichment R.
B18 showed a binding signal of 0.482 enrichment R.
For B19, the binding signal stood at 1.45 enrichment R.
B20 displayed a binding signal of 1.69 enrichment R.
As to B21, the binding signal is 0.515 enrichment R.
The result for B22 reads 1.04 enrichment R.
